Out of some 340,000 compounds screened, about 6,900 (2%) were called active. Cut-off read from the data, not from the text of the source: active = inhibition above about 30%; inactive = below that, where a call was filed. The list shows a part of the results, in another mix than the full data. Where no call is shown, the source filed none.

The experiment deals with D(2) dopamine receptor (Homo sapiens) (UniProt P14416). Description: HTS Assay for Allosteric Antagonists of the Human D2 Dopamine Receptor: Primary Screen for Antagonists. Note: 0% is about no effect. As to conditions: HEK293 TREx D2 cells, calcium flux, dopamine EC80; at 10 µM; stronger effect = higher value. Summed up: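 Antagonism is scored as inhibition of an EC80 dopamine-evoked calcium signal in a force-coupled, tetracycline-inducible HEK293 T-REx D2 line, with compound present 180 s before agonist.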
Sequence of UniProt P14416 (P14416 whole entry, looked up): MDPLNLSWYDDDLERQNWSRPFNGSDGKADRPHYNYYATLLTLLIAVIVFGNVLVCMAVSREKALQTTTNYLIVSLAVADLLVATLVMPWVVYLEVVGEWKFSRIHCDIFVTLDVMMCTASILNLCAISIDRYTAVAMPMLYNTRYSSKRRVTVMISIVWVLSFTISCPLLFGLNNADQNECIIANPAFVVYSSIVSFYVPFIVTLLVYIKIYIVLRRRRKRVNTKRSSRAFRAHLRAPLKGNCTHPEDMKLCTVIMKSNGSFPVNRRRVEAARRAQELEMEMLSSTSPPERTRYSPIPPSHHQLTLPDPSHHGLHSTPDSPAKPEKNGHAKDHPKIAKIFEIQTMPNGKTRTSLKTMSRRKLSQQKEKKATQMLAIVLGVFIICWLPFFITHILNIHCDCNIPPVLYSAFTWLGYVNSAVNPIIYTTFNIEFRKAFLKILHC
As for `COc1cccc(NC(=O)CSc2nc(-c3ccccc3Cl)nc3c2Cc2c(CO)cnc(C)c2O3)c1`, the inhibition was determined as 16%.

On to `CCOC(=O)C1=C(CS(=O)(=O)c2ccc(OC)c(Cl)c2)NC(=O)NC1c1cccc(OC)c1` (stereo unspecified), for which the inhibition turned out to be 8.98%. The value for `CC(=O)Nc1c(C)nn(-c2ccccc2)c1N1CCC(C(=O)NCc2ccccc2Cl)CC1` was -21.3%; that for `O=C(CCn1nc(-c2ccc(Cl)cc2)ccc1=O)NCCc1ccccc1` was 14.6%. Next, `Cc1ccc(S(=O)Cc2nc(-c3ccc(C(=O)NCc4cccc(C)c4)cc3)oc2C)cc1` (stereo unspecified): 3.03%; `CCOC(=O)c1c(NC(=O)CSc2cn(CCNC(=O)c3c(F)cccc3F)c3ccccc23)sc2c1CCC2`: -13.7%; `COc1ccc(CCN2C(=O)c3[nH]nc(-c4ccccc4O)c3C2c2ccc(OC)c(OC)c2)cc1` (stereo unspecified): -0.646%.

In the case of `CCOC(=O)c1noc2ncnc(Nc3cccc(OC)c3)c12`, the inhibition was -9.27%. For `CCOC(=O)COc1ccc(F)cc1C(=O)c1ccn2nc(-c3ccc(Cl)cc3)cc2n1`, the inhibition was -2.35%. The value for `CCCn1c(=O)c2sccc2n2c(CCCC(=O)NCc3ccccc3)nnc12` was 4.95%; that for `O=C(COc1ccccc1Cl)Nc1ccc2nc(SCC(=O)N3CCCC3)sc2c1` was 4.34%. For `Cc1ccc(S(=O)(=O)Nc2cc3c(cc2N2CCOCC2)n(C)c(=O)n3C)cc1`, the inhibition is 1.06%.

In the case of `CCC(=O)Oc1ccc(C2Nc3ccccc3-c3nnc(SC)nc3O2)cc1` (stereo unspecified), the inhibition was 0.817%. `Cc1ccc(NC(=O)N2CCN(c3cc(-c4noc(C)n4)ccc3C)CC2)c(F)c1`: the inhibition came to 25.5%. Next, `Cc1ccc2nc(-c3cc(NC(=O)COc4ccc(C)c(C)c4)ccc3Cl)oc2c1`: -3.56%; `COC(=O)c1cc(C)nc2c1c(=O)nc(SCc1ccccc1C)n2C1CC1`: 1.82%; `COC(=O)C1CCN(S(=O)(=O)c2ccc(N3CCCCS3(=O)=O)cc2)CC1`: -8.32%. The value for `CCc1nn(CCCC(=O)N2CCN(c3cccc(OC)c3)CC2)c(=O)c2cc3occc3n12` was 5.75%; that for `Cc1c(-c2nc(-c3ccc4c(c3)OCO4)no2)nnn1-c1ccc(C(C)C)cc1` was 6.46%; that for `Cc1ccc(C(=O)NCC(c2ccc3c(c2)OCO3)N2CCOCC2)cc1` (stereo unspecified) was 25.7%. The value for `Cc1cccc(NC(=O)C(Cc2ccccc2)NS(=O)(=O)c2ccc3c(c2)c(=O)n(C)c(=O)n3C)c1` (stereo unspecified) was 10.1%; that for `CC(=O)c1cccc(NS(=O)(=O)c2cc3c(cc2C)N(C(C)=O)CCO3)c1` was 14.2%.

Turning to `Cc1ccc(-c2nc(C(=O)NCc3ccccc3Cl)c3n2CCCCC3)cc1`, the inhibition is -14.3%. For `Cc1ccc(NC(=O)N2CCC(CN3CCCC3)CC2)c(C)c1`, the inhibition amounted to 21.5%. The value for `COc1cc(C2NC(=O)NC(C)=C2C(=O)OCc2ccc(C)cc2)cc(OC)c1OC` (stereo unspecified) was active: 34.5%; that for `COc1ccc(CNC(=O)Nc2cn(CC(C)C)c(=O)c3ccccc23)cc1` was -7.1%.

For the origin of these results see PubChem BioAssay AID485344 (National Center for Advancing Translational Sciences (NCATS), 2010).
